Laboratory results published in paper PMC12136788.
Some of the results follow.

B1: chr16:46956839:46956924:-|3pUTR|ENSG00000069345|msi1_unk|total|mutant (ssRNA)
RNA: GGGAGUUCUACAGUCCGACGAUCAUCAAUCCAGAUGAACUGAGGGACAUCUGUUGGUCUAUGUAUAACUUUUAAAAUUGGUACCGUAUCUACAGAGUGUAUAAUUUAAACUAACCACAAAGCUUUACAUCUUCAUUUUGACUGCAACAGAGGAUUGAGCAUCA
B2: chr5:80438700:80438808:+|CDS|ENSG00000039319|unk|total|mutant (ssRNA)
RNA: GGGAGUUCUACAGUCCGACGAUCAGAUACAACCGAAAGUGAACCCAGCACAGCAGAUACCGUUGUUCCAAUCACUUGUGCUACCGAUUCUACAGCUGAUCCACAGGUCCGCUUCAACUCUAAUUACAUUGAUACCGAAAGUAACAACAGAGGAUUGAGCAUCA
B3: chrX:8528873:8532994:-|three_prime_utr|ENSG00000011201|control|control|control (ssRNA)
RNA: GGGAGUUCUACAGUCCGACGAUCAUGCACACUUCCAGAGGCAGUGGGAACUGCUCAGAGGCCCGGACUCUCCUAUGUGACUUUAGUGCAGGAAGAACUUCUGUCAAUCAUGGACGCAUCUGGAGACAAGUGAGAAACAGUAGACAACAGAGGAUUGAGCAUCA
B4: ENSG00000070961:be:win_651|CDS|ENSG00000070961|bound_else_gene|NA|bound_elsewhere_windowed (ssRNA)
RNA: GGGAGUUCUACAGUCCGACGAUCAGUGAAAUAUGGUGAUCUUCUUCCAGCUGACGGCAUACUUAUUCAAGGCAACGAUCUUAAAAUUGAUGAAAGCUCAUUGACUGGUGAAUCAGAUCAUGUUAAAAAGUCUUUAGAUAAGGACAACAGAGGAUUGAGCAUCA
B5: chr1:192811693:192811799:+|3pUTR|ENSG00000116741|unk|total|mutant (ssRNA)
RNA: GGGAGUUCUACAGUCCGACGAUCCUUGAAUUCAGCCUGGGUGUUCAGGAAACAUCACUCAGAACUAUUGAUUCAAAGUUGGGCCGUGAAUCAGGAAGCCAGUAACUGACCCGGAGAAGCUGGUAUCAGAACAGCUUCCCUCACCAACAGAGGAUUGAGCAUCA
B6: chr10:110887682:110887783:+|CDS|ENSG00000150593|msi1|FALSE|bound_elsewhere (ssRNA)
RNA: GGGAGUUCUACAGUCCGACGAUCGUUAAGAGAUUUAAAUCUUGGUGAAAUGAAAAGUGGAGUACCAGUGUUGGCAGUAUCCUUAGCAUUGGAGGGGAAGGCUAGUCAUAGAGAGAUGACAUCUAAGCUUCUUUCUGACCUUUGCAACAGAGGAUUGAGCAUCA

target: MSI1 full-length (mouse, UniProt Q61474 1-362); assay: nsRBNS (natural sequence RNA bind-n-seq); RBNS binding buffer (assumed for nsRBNS): 25 mM Tris pH 7.5, 150 mM KCl, 3 mM MgCl2, 0.01% Triton X-100, 500 ug/ml BSA, 20 U/ml SUPERase-In, 4 C; UNK is unkempt and MSI1 is Musashi-1; names of the RNAs are library labels; protein concentration not given here; high values mean tight binding
Chain of UniProt Q61474 (Q61474 whole entry): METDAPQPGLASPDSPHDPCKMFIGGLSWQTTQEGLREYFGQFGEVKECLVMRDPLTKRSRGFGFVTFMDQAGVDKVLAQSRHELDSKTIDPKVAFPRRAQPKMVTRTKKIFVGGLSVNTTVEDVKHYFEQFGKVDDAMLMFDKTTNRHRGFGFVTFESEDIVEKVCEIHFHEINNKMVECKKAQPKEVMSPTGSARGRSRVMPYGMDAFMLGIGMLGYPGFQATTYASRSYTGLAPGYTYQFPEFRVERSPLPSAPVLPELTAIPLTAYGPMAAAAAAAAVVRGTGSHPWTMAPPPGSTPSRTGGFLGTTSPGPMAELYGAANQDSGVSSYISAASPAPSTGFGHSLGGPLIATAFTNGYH

Binder	binding signal
B1	1.69 enrichment R
B2	0.458 enrichment R
B3	0.626 enrichment R
B4	0.444 enrichment R
B5	0.262 enrichment R
B6	0.672 enrichment R
